Results taken from PubChem BioAssay AID686971 (National Center for Advancing Translational Sciences (NCATS), 2013).
In all, about 360,000 compounds went through this assay and about 7,500 (2.1%) were called active. This list was built around the results that the source calls inconclusive (neither active nor inactive); the mix of calls is not that of the screen. Calls follow the shape of the dose curve; as a rule, active = well fitted cell-killing curve with a large enough effect; inconclusive = small, poorly fitted or top-dose-only effect, or effect the other way, or another doubt; inactive = no such curve, though single readings can be large or run the other way. No potency is given beside an inconclusive call; the fits are too rough.

Test: qHTS for induction of synthetic lethality in tumor cells producing 2HG: qHTS for the HT-1080-IDH1KD cell line;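 as to activity, negative = toxicity: 0% = DMSO wells and -100% = cell-free medium wells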
Conditions: HT-1080 IDH1 knockdown viability, ATP luminescence, 48 h; activity, negative = toxicity: at 46.1 µM (top of the series) unless noted
Method in brief: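 Luminescent ATP read-out (CellTiter-Glo, 10 min at room temperature) after 48 h compound exposure at 37 °C gave viability of IDH1-knockdown HT-1080 cells. Activity was normalised to DMSO and cell-free wells, then fitted as concentration-response curves.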
Potency is read from the fitted curve at half-maximal effect; tags tell the direction and shape of the fitted curve.

| Structure (SMILES) | Potency | activity, negative = toxicity |
| --- | --- | --- |
| COc1ccc(C(=O)C(CN2CCOCC2)c2ccccc2)cc1 (stereo unspecified) | active: 2 µM |  |
| CC(=O)Nc1ccc(S(=O)(=O)NNC(=O)NC23CC4CC(CC(C4)C2)C3)cc1 |  | inactive: -17.7% |
| OCCNc1nc(-c2ccccc2)c2cc(Cl)ccc2n1 | inconclusive [cytotoxic, partial curve] |  |
| c1ccc(COc2ccc(OCCCCN3CCCC3)cc2)cc1 |  | inactive: -14.6% |
| C/C(CC(=O)Nc1ccc(Cl)c(C(F)(F)F)c1)=N\NC(=O)c1cnccn1 | inconclusive [cytotoxic, single point] |  |
| CCCCCCCCn1c(=O)c(C(=O)OC)c(N)c2ccccc21 | active: 16.4 µM |  |
| CSc1nc2n(n1)C(c1cccs1)C1=C(CCCC1=O)N2 (stereo unspecified) |  | inactive: 2.51% |
| O=C(NCc1ccccc1)C(c1ccccc1F)n1c(=O)c(-c2cc3ccccc3[nH]2)nc2ccccc21 (stereo unspecified) | inconclusive [cytotoxic, single point] |  |
| CC(OC(=O)Cc1n[nH]c(=O)c2ccccc12)C(=O)N(C)c1ccccc1 (stereo unspecified) | inconclusive [cytotoxic, single point] |  |
| NC(=S)NN=Cc1nccc2c(C(F)(F)F)cccc12 | inconclusive [cytotoxic, full curve, poor fit] |  |
| COc1ccc(C(=O)N2CCC(C)(C(=O)NS(=O)(=O)C3CC3)C2)cc1F (stereo unspecified) | inconclusive [rising, single point] |  |
| OCCN1CCN(CC/C=C2/c3ccccc3Sc3ccc(Cl)cc32)CC1 | inconclusive [cytotoxic, single point] |  |
| CCCNC(=O)C1(C)CCCN(CCC(=O)c2ccccc2)C1 (stereo unspecified) | inconclusive [cytotoxic, single point] |  |
| OCC1(Cc2ccc(Cl)cc2)CCN(CC2CC=CCC2)CC1 (stereo unspecified) | inconclusive [cytotoxic, single point] |  |
| CCOC(=O)C1=C(C)NC(=O)NC1/C=C/c1ccccc1OC (stereo unspecified) |  | inconclusive: -19.8% [cytotoxic] |
| CC(C)(C)OC(=O)N[C@@H](Cc1ccccc1)c1nnc(S(=O)(=O)Cc2cccc(F)c2)o1 | active: 23.1 µM |  |
| Cc1ccc2c(c1)NC(=O)C(CC(=O)Nc1ccc(CN3CCC(C)CC3)cc1)O2 (stereo unspecified) |  | inconclusive: -6.07% [cytotoxic] |
| CC1(C)N=C(N)N=C(N)N1c1ccc(OCC(=O)N2CCOCC2)cc1 | active: 6.51 µM |  |
| O=C(COC(=O)c1n[nH]c2ccccc12)Nc1ccccc1 |  | inactive: 23.6% |
| O=c1[nH]c(CSc2nc3ccccc3[nH]2)nc2c1cnn2-c1ccccc1 | inconclusive [cytotoxic, single point] |  |
| Cc1cc(C(=O)N/N=C/c2ccc(C)o2)c2ccccc2n1 | inconclusive [cytotoxic, full curve] |  |
| Cn1nc(-c2ccc(N3CCOCC3)c(NS(=O)(=O)c3ccc(Cl)cc3)c2)c2ccccc2c1=O | active: 18.4 µM |  |
| O=C(c1n[nH]c(=O)c2ccccc12)N1CCN(c2ccccc2)CC1 |  | inconclusive: -32.9% [cytotoxic] |
| COc1cccc(NC(=O)Nc2ccc3c(c2)N(C)C(=O)CS3)c1 | inconclusive [cytotoxic, single point] |  |

| Structure (SMILES) | Potency | activity, negative = toxicity |
| --- | --- | --- |
| CC1(C(=O)Nc2cccnc2)Cc2c(-c3ccccc3)ccnc2O1 (stereo unspecified) |  | inactive: -0.19% |
| COc1cc(C(=O)Nc2ccccc2-c2nnn(CC(N)=O)n2)cc(OC)c1OC | inconclusive [cytotoxic, single point] |  |
| O=C(Nc1ccc(N2CCOCC2)c(Cl)c1)c1cccnc1Cl |  | inactive: 6.52% |
| COc1ccccc1CNS(=O)(=O)c1ccc(-n2cccn2)cc1 |  | inactive: -0.913% |
| CNC(=O)NC(=O)CSc1nnc(-c2ccc(F)cc2)n1CC1CCCO1 (stereo unspecified) | inconclusive [rising, single point] |  |
| OC[C@@H]1[C@@H](c2ccccc2)C(c2ccc(F)cc2)=NN1c1ccccc1 | inconclusive [cytotoxic, single point] |  |
| O=C(c1[nH]c(C(F)(F)F)nc1-c1ccccc1)N1CCN(c2cccc(C(F)(F)F)n2)CC1 | active: 1.84 µM |  |
| CN(C)C(=O)CCc1ccc2c3c([nH]c2c1)[C@]1(C)[C@@H](C(=O)N2CCCCC2)C[C@H](CC(=O)NCCCn2ccnc2)C(=O)N1CC3 |  | inactive: 0.0082% |
| Cc1cccc(NS(=O)(=O)c2ccc3nc(-c4ccccc4)[nH]c3c2)c1C | inconclusive [cytotoxic, partial curve] |  |
| Cc1ccc(C)c(NC(=O)c2cc(-c3cc(C)c(C)cc3O)n[nH]2)c1 | inconclusive [cytotoxic, single point] |  |
| Cc1ccccc1-c1ocnc1C(=O)Nc1ccccc1NC(=O)c1ccccn1 | inconclusive [cytotoxic, single point] |  |
| Cc1nn(Cc2c(F)c(F)c(F)c(F)c2F)c(C)c1NC(=O)c1c(-c2ccccc2)nn(-c2ccccc2)c1C | inconclusive [cytotoxic, partial curve] |  |
| Cc1cc(Nc2ccc(C)c(Cl)c2)nc(N2CCOCC2)n1 | inconclusive [cytotoxic, partial curve] |  |
| COc1ccc(C(=O)COC(=O)[C@H](C)NS(=O)(=O)c2ccc(NC(C)=O)cc2)cc1OC |  | inactive: 2.09% |
| CC1Cc2cc(S(=O)(=O)N3CCN(C)CC3)ccc2N1C(=O)C1CC1 (stereo unspecified) |  | inactive: -4.99% |
| CCCc1cc(=O)[nH]c(SCc2nc3ccc([N+](=O)[O-])cc3[nH]2)n1 | active: 14.6 µM |  |
| O=C(Nc1cccc(S(=O)(=O)NCc2ccco2)c1)c1cc(-c2ccccc2)nc2ccccc12 | inconclusive [cytotoxic, single point] |  |
| CC(=O)c1cccc(NC(=O)c2cccc3ccccc23)c1 |  | inactive: 3.15% |
| CCCCN(CC)CCNC(=O)c1ccc2c(Cl)c3c(nc2c1)CCC3 | active: 23.1 µM |  |
| Cc1ccc(C(C)C)c(OCC(O)CN(C)Cc2ccccc2)c1 (stereo unspecified) | inconclusive [cytotoxic, single point] |  |
| O=C1CCN(Cc2ccco2)C(=S)N1 |  | inactive: 3.96% |
| Oc1ccc2oc3c(c2c1C=NCc1ccncc1)CCCC3 | inconclusive [cytotoxic, single point] |  |
| O=C(NCCc1ccc(O)c(O)c1)C1COc2ccccc2O1 (stereo unspecified) | inconclusive [cytotoxic, single point] |  |
| CCOC(=O)[C@]12CCC=C1N(Cc1ccc(Cl)cc1Cl)C(=O)[C@H](CC(=O)N1CCN(C(=O)c3ccco3)CC1)C2 | inconclusive [cytotoxic, single point] |  |

| Structure (SMILES) | Potency | activity, negative = toxicity |
| --- | --- | --- |
| O=C1NN(c2ccc(Br)cc2)C(=O)/C1=C\c1ccc(O)cc1O | inconclusive [cytotoxic, partial curve] |  |
| Cc1ccn2c(Nc3ccc4c(c3)OCO4)c(-c3ccccn3)nc2c1 | inconclusive [cytotoxic, single point] |  |
| Oc1ccc2ccccc2c1/C=N/c1nc2c(s1)CCCC2 | active: 23.1 µM |  |
| COc1ccc2[nH]c(-c3ccc(C)cc3)cc(=O)c2c1 | active: 23.1 µM |  |
| Cc1ccsc1C1Nc2ccc3ncccc3c2C2=C1C(=O)CC(C)(C)C2 (stereo unspecified) | inconclusive [cytotoxic, partial curve] |  |
| COc1ccc(CCNC(=O)c2cccc([N+](=O)[O-])c2)cc1OC | inconclusive [rising, full curve] |  |
| Cc1cscc1-c1cc2nc(NCCCN(C)C)n(C)c(=O)c2s1 | inconclusive [cytotoxic, single point] |  |
| Cc1ccc(NC2=NC3(CCCCC3)N=C(N)N2)c(C)c1 | active: 11.2 µM |  |
| C/C(=N\NC(=O)c1ccc(Cl)c(Cl)c1)c1ccccn1 | active: 1.84 µM |  |
| CC(=O)Nc1ccc(-c2ccnc3c2CC(C)(C(=O)Nc2ccc(F)c(Cl)c2)O3)cc1 (stereo unspecified) | inconclusive [cytotoxic, single point] |  |
| COCCn1c(SCC(=O)N2CCOCC2)nc2ccccc2c1=O |  | inactive: 6.28% |
| Fc1ccc2nc3[nH]c4ccccc4c3nc2c1 | inconclusive [cytotoxic, partial curve] |  |
| COc1ccc([N+](=O)[O-])cc1NC(=O)Cc1ccc(Cl)cc1 | inconclusive [cytotoxic, partial curve] |  |
| COc1ccc(CNC(=O)c2nc(S(=O)(=O)Cc3ccccc3)ncc2Cl)cc1 | inconclusive [cytotoxic, single point] |  |
| COc1cc2c(cc1OC)CN(C(=O)c1ccc3nc[nH]c3c1)CC2 | active: 11.6 µM |  |
| CC(C)(C)c1cc(C(=O)NN)n(Cc2ccc(Cl)cc2Cl)n1 | active: 14.6 µM |  |
| CC(CNc1nc2ccc(Cl)cc2n2cnnc12)c1ccccc1 (stereo unspecified) |  | inactive: 11.7% |
| CC1(C(=O)Nc2cnc3ccccc3c2)CCN1Cc1ccccc1OC(F)F (stereo unspecified) | inconclusive [cytotoxic, single point] |  |
| COc1ccccc1Cn1c(=O)c2ccccc2n2c(Sc3ncnc4sccc34)nnc12 | inconclusive [cytotoxic, single point] |  |
| N#Cc1ccc(OCC(=O)Nc2ccc(N3CCCC3)cc2)cc1 |  | inactive: 0% |
| Cc1ccc(C)c(NC(=S)NC(NC(=O)Cc2ccccc2)C(Cl)(Cl)Cl)c1 (stereo unspecified) | inconclusive [cytotoxic, single point] |  |
| Cc1cccc(/C(N)=N/OC(=O)C23CC4CC(CC(C4)C2)C3)c1 | inconclusive [cytotoxic, single point] |  |
| CCCC(C(=O)Nc1ccc(S(=O)(=O)N2CCOCC2)cc1)c1ccccc1 (stereo unspecified) | inconclusive [cytotoxic, single point] |  |
